# Assay results as given in the BET-seq Pho4 binding data (Le et al. 2018).
# The other results are listed elsewhere or left out. The energies were worked out here from pooled read counts, against the library average; single values are noisy.
# Molecular target: T1, Pho4 (S. cerevisiae) (UniProt P07270)
# T1 sequence: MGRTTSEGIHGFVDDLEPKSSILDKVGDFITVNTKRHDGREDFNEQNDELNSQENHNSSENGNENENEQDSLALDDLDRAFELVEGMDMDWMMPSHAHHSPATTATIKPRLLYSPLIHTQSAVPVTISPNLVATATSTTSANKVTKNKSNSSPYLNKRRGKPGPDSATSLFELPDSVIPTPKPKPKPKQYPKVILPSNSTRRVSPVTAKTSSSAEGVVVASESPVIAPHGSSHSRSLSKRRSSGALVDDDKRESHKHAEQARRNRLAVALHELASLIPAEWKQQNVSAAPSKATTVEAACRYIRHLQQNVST
# Assay: relative binding free energy (BET-seq); higher = weaker binding
# Settings: reference: library average
row,Sequence,relative binding free energy
1,GTCGCCACGTGAGGGT,0.03 kcal/mol
2,AGATGCACGTGAATTT,0.2 kcal/mol
3,GCTTTCACGTGGTAGT,0.26 kcal/mol
4,GAGTTCACGTGTCGGG,0.5 kcal/mol
5,CAAAGCACGTGCTGGG,0.12 kcal/mol
6,GATAGCACGTGGGGGC,-0.12 kcal/mol
7,CCGTTCACGTGTTGTA,0.31 kcal/mol
8,AAGGACACGTGGGTAG,-0.16 kcal/mol
9,ATCTACACGTGGTAGG,0.08 kcal/mol
10,GAGGTCACGTGATATG,0.16 kcal/mol
11,CGGGCCACGTGTTGGG,-0.02 kcal/mol
12,TTGTTCACGTGGGATG,0.3 kcal/mol
13,TGAGGCACGTGATTTG,0.01 kcal/mol
14,ACGGGCACGTGTATTG,-0.12 kcal/mol
15,CGTTTCACGTGTCGTT,0.21 kcal/mol
16,GACATCACGTGGGTGT,0.15 kcal/mol
17,TAATTCACGTGTGTTA,0.4 kcal/mol
18,ATTACCACGTGTGTTT,-0.13 kcal/mol
19,TTGTGCACGTGAGGTC,0.25 kcal/mol
20,GCGCGCACGTGGGATG,-0.11 kcal/mol
21,ATTTGCACGTGGCGCA,-0.07 kcal/mol
22,GGATACACGTGTTTGT,0.03 kcal/mol
23,TGGGGCACGTGATGCT,0.07 kcal/mol

row,Sequence,relative binding free energy
1,TTTGTCACGTGGAACT,0.16 kcal/mol
2,AGTGACACGTGAGGAG,0.1 kcal/mol
3,ATGAGCACGTGCGGAG,-0.13 kcal/mol
4,CTTGGCACGTGTGATA,0 kcal/mol
5,TGTCGCACGTGATGTT,-0.03 kcal/mol
6,TATATCACGTGCGGGC,0.07 kcal/mol
7,GTGGGCACGTGGTTTA,0 kcal/mol
8,TTTGTCACGTGCAGGG,0.09 kcal/mol
9,TGAGGCACGTGTGCGG,-0.12 kcal/mol
10,TTTTACACGTGGCGTA,0.15 kcal/mol
11,CGGGTCACGTGGGAGC,0.03 kcal/mol
12,GGTATCACGTGTCTTA,0.23 kcal/mol
13,CGGGTCACGTGTTTTG,0.12 kcal/mol
14,ATGCACACGTGGTGAG,0.13 kcal/mol
15,TTATGCACGTGAATTG,0.27 kcal/mol
16,ACGTGCACGTGTAGTG,-0.04 kcal/mol
17,AATTGCACGTGTGGAT,0.08 kcal/mol
18,TTACGCACGTGGGATT,-0.26 kcal/mol
19,TGGGCCACGTGTTGGT,0.05 kcal/mol
20,TTGTGCACGTGGCGGG,-0.06 kcal/mol
21,GTTAGCACGTGATAAG,0.1 kcal/mol
22,GTTGACACGTGATGAT,0.19 kcal/mol
23,TGTGACACGTGGGATT,0.03 kcal/mol

row,Sequence,relative binding free energy
1,TTGTTCACGTGTTTAT,0.2 kcal/mol
2,AGTTGCACGTGCAGTA,-0.06 kcal/mol
3,AATCGCACGTGGGTAT,-0.13 kcal/mol
4,GGCGACACGTGTTTTT,0.16 kcal/mol
5,TATATCACGTGTGTGT,0.13 kcal/mol
6,TGCGCCACGTGTGGTA,-0.04 kcal/mol
7,ATGGACACGTGAATGG,0.31 kcal/mol
8,GCAATCACGTGTTGTT,0.11 kcal/mol
9,TGGGGCACGTGTGGAG,0 kcal/mol
10,TATATCACGTGATTGT,0.29 kcal/mol
11,ATGGCCACGTGTCTGT,0.02 kcal/mol
12,GGCGCCACGTGTGAGG,-0.05 kcal/mol
13,TGACTCACGTGGAGGA,0.23 kcal/mol
14,CCTGGCACGTGTTTTG,0.02 kcal/mol
15,GGTACCACGTGGGCGT,-0.08 kcal/mol
16,GAAGTCACGTGTACGG,0.2 kcal/mol
17,ATCGACACGTGTTAGT,0.06 kcal/mol
18,CAGTTCACGTGGGCGG,0.07 kcal/mol
19,AGGGGCACGTGTCTTA,-0.17 kcal/mol
20,GGTCGCACGTGTAGTG,0.17 kcal/mol
21,AAAATCACGTGGATGT,0.08 kcal/mol
22,GACGTCACGTGATGGG,0.26 kcal/mol
23,TTGGCCACGTGGTGGC,-0.09 kcal/mol

row,Sequence,relative binding free energy
1,TGTCTCACGTGTGCGA,0.27 kcal/mol
2,TGATGCACGTGTTGAC,-0.07 kcal/mol
3,TGTAGCACGTGTATTT,-0.05 kcal/mol
4,GAGTGCACGTGGTGGT,-0.05 kcal/mol
5,GAGAGCACGTGTGTGA,-0.1 kcal/mol
6,GGTTGCACGTGGGGGC,-0.02 kcal/mol
7,AGAGGCACGTGCGGAT,-0.13 kcal/mol
8,CTGTGCACGTGGTCCG,-0.02 kcal/mol
9,CGCGGCACGTGCGTTT,-0.03 kcal/mol
10,CGCGGCACGTGTGGTT,-0.07 kcal/mol
11,TGATTCACGTGGAAGG,0.26 kcal/mol
12,CGCGGCACGTGGAGAG,-0.07 kcal/mol
13,ACGGGCACGTGGGATA,-0.2 kcal/mol
14,TTGTACACGTGCTGAT,0.01 kcal/mol
15,GCTATCACGTGGGGTG,-0.03 kcal/mol
16,TTGTTCACGTGGTTTC,0.4 kcal/mol
17,GGATTCACGTGTAAGG,0.23 kcal/mol
18,GGTATCACGTGGTTGC,0.23 kcal/mol
19,TGGTACACGTGTGCCG,0.07 kcal/mol
20,CATATCACGTGAGGGG,0.29 kcal/mol
21,TACGGCACGTGGGTGC,-0.24 kcal/mol
22,TCTTGCACGTGATTGG,0.1 kcal/mol
23,GTGGTCACGTGCGAAT,0.01 kcal/mol

row,Sequence,relative binding free energy
1,TGATTCACGTGTAGTA,0.15 kcal/mol
2,CTGGTCACGTGGTACT,0.05 kcal/mol
3,CTTAGCACGTGAGTAT,0.18 kcal/mol
4,AGAGGCACGTGGATTT,-0.14 kcal/mol
5,ATTTTCACGTGCAATT,0.27 kcal/mol
6,CGAGCCACGTGGAGGG,0 kcal/mol
7,ATATTCACGTGTTGAA,0.12 kcal/mol
8,GTTGGCACGTGGCGGG,-0.09 kcal/mol
9,CGGCTCACGTGCGTTG,0.3 kcal/mol
10,ATTCTCACGTGTCGGT,0.28 kcal/mol
11,TGTGGCACGTGGTAAT,-0.05 kcal/mol
12,CTGTACACGTGTGAGG,0.13 kcal/mol
13,CTGGACACGTGTGTCG,0.02 kcal/mol
14,TTCTCCACGTGTTTGT,-0.15 kcal/mol
15,GCGTGCACGTGTTAGG,-0.07 kcal/mol
16,TAGATCACGTGGTTGA,0.07 kcal/mol
17,TTTGGCACGTGTCTAT,-0.1 kcal/mol
18,TAGATCACGTGGCGTT,0.1 kcal/mol
19,GTGAGCACGTGAAGTA,0.11 kcal/mol
20,AATGCCACGTGGGTTG,-0.3 kcal/mol
21,TGTCACACGTGGTGGA,0.01 kcal/mol
22,TTTAGCACGTGAGAGA,0.27 kcal/mol
23,TTTTGCACGTGCTCTG,-0.12 kcal/mol
